Values joined by “and” are separate entries in the source; they are usually repeats but may differ in a detail not shown here. Equal values may be shown once. The whole screen tested about 110,000 compounds, of which about 230 (0.21%) showed an effect of 50% or more. The list shows a part of the results.
molecular target: DPAP1 (Plasmodium falciparum, UniProt Q8IIJ9); experiment: primary screen, percent inhibition; read by cleavage of a fluorogenic dipeptide substrate; higher = more effect of the substance; set-up: species or system P. falciparum D10 trophozoite lysates; single well
Sequence (Q8IIJ9 whole entry, looked up): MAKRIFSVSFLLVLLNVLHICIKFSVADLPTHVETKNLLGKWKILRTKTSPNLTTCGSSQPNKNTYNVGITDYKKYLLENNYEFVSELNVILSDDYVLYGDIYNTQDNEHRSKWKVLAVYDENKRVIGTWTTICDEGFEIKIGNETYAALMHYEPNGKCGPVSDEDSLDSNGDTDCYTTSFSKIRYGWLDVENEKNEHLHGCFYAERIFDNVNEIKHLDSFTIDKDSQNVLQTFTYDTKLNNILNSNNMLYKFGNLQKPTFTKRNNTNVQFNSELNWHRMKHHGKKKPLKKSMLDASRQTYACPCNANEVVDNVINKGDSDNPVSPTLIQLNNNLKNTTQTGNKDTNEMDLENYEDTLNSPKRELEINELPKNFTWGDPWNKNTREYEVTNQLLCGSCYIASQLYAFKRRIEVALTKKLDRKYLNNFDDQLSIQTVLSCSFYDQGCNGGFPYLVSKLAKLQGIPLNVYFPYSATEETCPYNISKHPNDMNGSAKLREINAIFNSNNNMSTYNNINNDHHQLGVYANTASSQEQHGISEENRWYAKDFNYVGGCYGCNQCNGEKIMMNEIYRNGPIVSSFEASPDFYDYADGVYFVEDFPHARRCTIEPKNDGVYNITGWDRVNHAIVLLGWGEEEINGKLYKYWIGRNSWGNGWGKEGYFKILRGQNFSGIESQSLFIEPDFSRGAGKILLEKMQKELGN
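Further: 30 min substrate incubation versus DMSO and 10 µM JCP410 controls.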

In order of rising “% Inhibition @ 10 uM” value:
1. COC(=O)C1=C(C)N(C)C(=O)NC1c1cccc(F)c1 (stereo not shown)  -19.8%
2. CC(C)Cn1cc(NC(=O)NCCN(Cc2ccccc2)C(C)C)c2ccccc2c1=O  -10.2%
3. NC(=O)COc1ccc(Br)cc1  -9.75%
4. COc1ccc(CCNCc2ccccc2C(F)(F)F)cc1  -9.04%
5. CN1CCC(OC(=O)c2cccc(F)c2)CC1  -8.42%
6. O=C(NC(=S)NCCc1ccccc1)c1ccccc1  -8.01%
7. CC(C)C(NC(=O)CN(c1ccc(F)cc1)S(=O)(=O)c1ccc2c(c1)OCCO2)C(C)C  -7.25%
8. COC(=O)C1=CN(Cc2ccc(Cl)cc2)C=C(C(=O)OC)C1c1cccs1  -6.91%
9. Cc1ccc(SCc2ccccc2C(=O)O)cc1  -6.83%
10. COc1ccc2c(CNCCc3ccccc3C)c(C(=O)O)n(Cc3ccccc3F)c2c1  -6.56%
11. O=C(COc1ccc(Br)cc1)Nc1ccc(N2CCCC2)c(Cl)c1  -6.39%
12. CCOC(=O)N1CCN(C(=O)c2sc3nc(-c4ccc(F)cc4)cn3c2C)CC1  -5.58%
13. CCc1c(C)nn2c1n1nc(C)c(CC)c1n1nc(C)c(CC)c21  -5.46%
14. CC(=O)Nc1nnc(S(=O)(=O)N2CCOCC2)s1  -5.37%
15. COCCO/C(O)=C1/C(C)=NC2=C(C(=O)CCC2)C1c1ccccc1 (stereo not shown)  -5.23%
16. CCCCN1C(=O)C(NS(=O)(=O)c2ccc(C)cc2)(C(F)(F)F)C2=C1CC(C)(C)CC2=O (stereo not shown)  -5.2%
17. O=C(C1CCC(c2ccccc2)CC1)N1CCOCC1 (stereo not shown)  -5.11%
18. Cc1csc(NC(=O)CSc2nsc(SCC(=O)Nc3nc(C)cs3)c2C#N)n1  -4.6%
19. CCn1cc(C2C3=C(O)CCCC3=NC(C)=C2C(=O)Nc2ccc(Br)cn2)c(C)n1 (stereo not shown)  -4.41%
20. COc1ccc(C2c3[nH]c4ccccc4c3CCN2C(C)=O)c(OC)c1 (stereo not shown)  -4.3%
21. CC(NC(=O)CCc1nnc2n(CCc3ccccc3)c(=O)c3ccccc3n12)c1ccccc1 (stereo not shown)  -4.21%
22. CN(C)C1(c2nnnn2C(/C=C\c2ccc(Cl)cc2Cl)C(C)(C)C)CCCCC1 (stereo not shown)  -4.16%
23. O=C(CN1CCN(Cc2ccccc2Cl)C1=O)NCc1cccnc1  -4.16%
24. c1ccc(C2CCC(NCCc3c[nH]cn3)CC2)cc1 (stereo not shown)  -3.6%
25. CCCN1CCC(N[C@H]2CCCCNC2=O)CC1  -3.6%
26. Cc1nn(C(C)C(=O)NCc2ccccc2Cl)c(=O)c2c1sc1ccccc12 (stereo not shown)  -3.34%
27. COc1ccc(CN2CCc3nc(O)nc(O)c3C2)cc1  -3.13%
28. CCOC(=O)c1c(C)n(-c2ccc(OCC)cc2)c2ccc(O)cc12  -3.09%
29. C=CCn1c(SCC2=C(C(=O)OCC)C(c3cc(C)ccc3C)NC(=O)N2)nnc1-c1ccco1 (stereo not shown)  -2.63%
30. Cc1[nH]nc2c1C(c1cc(O)c(Br)c(O)c1)C(C#N)=C(N)O2 (stereo not shown)  -2.54%
31. CCN1CC2=C(OC(N)=C(C#N)C2c2cccc(C)c2)/C(=C/c2cccc(C)c2)C1 (stereo not shown)  -2.46%
32. CCOC(=O)N1CCN(C(=O)c2nc(-c3ccc(C)cc3)n3c2CCCCC3)CC1  -2.4%
33. COc1ccc(OC)c(CN2CCN(Cc3cccc(Br)c3)CC2)c1  -2.3%
34. Oc1nc(-c2ccccc2)cc(-c2ccccc2)n1  -2.03%
35. CCOc1ccc(NC=C2C(=O)N(C)C(=O)N(C)C2=O)cc1  -1.98%
36. Fc1cccc(CN2CCN(c3ccccn3)CC2)c1  -1.92%
37. COc1cccc(N2C(=O)C3C(c4ccc(C)cc4)OC4(C(=O)c5ccccc5C4=O)C3C2=O)c1 (stereo not shown)  -1.48%
38. COc1ccc(CNC(=O)Cn2c(=O)[nH]c3ccsc3c2=O)cc1  -1.29%
39. CC(C)Oc1ccccc1C1CC(=O)Nc2cc3c(cc21)OCO3 (stereo not shown)  -1.28%
40. CCn1cc(-c2cc(C(=O)O)c3ccccc3n2)c(C)n1  -1.28%
41. CC(C)CCNC(=O)c1ccc(CS(=O)(=O)c2ccc(Br)cc2)o1  -1.28%
42. Cc1cc(C)c2oc(-c3cccc(N)c3)nc2c1  -1.22%
43. COc1cccc2c1Oc1nc(-c3cccc(OC(C)C)c3)nc(O)c1C2  -1.06%
44. CCOC(=O)N1CCN(C(=O)CS(=O)Cc2nc(-c3cccc(C)c3)oc2C)CC1 (stereo not shown)  -1.05%
45. O=C(CCCOc1ccc(Cl)cc1Cl)Nc1ccccc1  -0.865%
46. O=C(c1cc2nc(-c3ccc(F)cc3)cc(C(F)(F)F)n2n1)N1CCOCC1  -0.795%
47. Cc1ccc(-c2cc3nc(-c4ccccc4)cc(C)n3n2)cc1  -0.597%
48. Cc1cc(C)c(C)c(Cn2c(CO)nc3ccccc32)c1C  -0.551%
49. COc1ccccc1CCNC(=O)CSc1ccc(-c2ccccn2)nn1  -0.538%
50. CC1(C)Cc2c(sc3ncn4nc(COc5ccc(Cl)cc5)nc4c23)C(C)(C)N1  -0.467%
51. O=C(C1CC(c2ccc(F)cc2)=NO1)N1CCN(C(c2ccccc2)c2ccccc2)CC1 (stereo not shown)  -0.431%
52. CCC(Sc1nc2cccnc2[nH]1)C(=O)NCCc1ccccc1 (stereo not shown)  -0.35%
53. COCCCN1C(=O)C(O)=C(C(=O)c2ccccc2)C1c1cc(OC)ccc1OC (stereo not shown)  -0.178%
54. C=C(C)c1cccc(C(C)(C)NC(=O)N2CCN(C/C=C/c3ccccc3)CC2)c1  -0.0626%
55. COc1ccc(-n2nc3c(c2NC(=O)c2c(F)cccc2F)CS(=O)(=O)C3)cc1  -0.0419%
56. Cc1cccc(N2C(=O)CC(Nc3ccc(F)cc3)C2=O)c1 (stereo not shown)  0.163%
57. N=CC1=C(O)c2ccccc2C1=O  0.343%
58. O=C(CSc1nnc2c(n1)[nH]c1ccccc12)Nc1ncc(C(F)(F)F)cc1Cl  0.503%
59. COc1ccc(OC)c(CN2CCN(Cc3ccc(Br)cc3)CC2)c1  0.635%
60. Cc1ccc(S(=O)(=O)NCC2CCC(C(=O)NC3CCC(C)CC3)CC2)cc1 (stereo not shown)  0.718%
61. COCCNC(=O)Nc1cn(C)c(=O)c2ccccc12  0.745%
62. CCN(Cc1ccccc1)C(=O)c1ccc(SC)cc1OC  0.777%
63. Cc1nc2sc(C(=O)c3ccccc3)c(N)c2c(C)c1Cl  1.01%
64. CCSc1nnc2n(Cc3ccccc3)c3ccccc3n12  1.23%
65. Cc1cc(O)c2c3c(c(=O)oc2c1)CCCC3  1.37%
66. O=C(Nc1sc2c(c1C(=O)c1ccccc1)CCCC2)c1ccc([N+](=O)[O-])cc1  1.54%
67. O=c1oc2ccccc2cc1NCc1ccccc1O  1.62%
68. NC(=O)NC(CC(=O)O)c1ccccc1 (stereo not shown)  1.7%
69. O=C(O)CC12CC3CC(C1)CC(n1ncc(N4CCC5(CC4)OCCO5)c(Cl)c1=O)(C3)C2  1.72%
70. N=C1/C(=C/c2ccc(Sc3cccc4ccccc34)o2)C(=O)N=C2SC=CN12  2.14%
71. CC(NC(=O)c1ccc(Cl)c([N+](=O)[O-])c1)c1ccccc1 (stereo not shown)  2.38%
72. Cc1ccc(N(CC(=O)Nc2cccnc2)S(C)(=O)=O)c(C)c1  2.4%
73. CN1C(=O)C(C(=O)N(Cc2ccccc2)Cc2ccccc2)C2CC1(C)Oc1ccccc12 (stereo not shown)  2.55%
74. CCOCCCNc1nc2ccccc2c2nc(-c3ccccc3)nn12  2.6%
75. CCc1ccc(-c2cc(C)no2)cc1S(=O)(=O)Nc1cc(C)ccn1  2.74%
76. CSC(SC)=C(C(C)=O)C(=O)c1ccc(C)cc1  2.76%
77. CCCn1c(CCNC(=O)c2cc(OC)c(OC)c(OC)c2)nc2ccccc21  2.83%
78. Cc1ccccc1C1C=C(c2ccc(Br)s2)Nc2ncnn21 (stereo not shown)  3.12%
79. Cc1nnc(N2C(=O)c3oc4ccccc4c(=O)c3C2c2cccs2)s1 (stereo not shown)  3.12%
80. Cc1ccccc1CN(C)C1CCN(C)CC1  3.16%
81. COc1cccc(CNCc2cccn2-c2nnc(N3CCN(C4CCCCC4)CC3)s2)c1  3.28%
82. COc1ccc(N(Cc2ccc(F)cc2)C(=O)c2ccc(Br)cc2)cc1  3.31%
83. COc1ccc(Br)cc1C1C2=C(O)CCCC2=Nc2nc3ccccc3n21 (stereo not shown)  3.32%
84. COc1cccc(CNc2nc3ccccc3n2CCN2CCOCC2)c1O  3.38%
85. COCCn1c(Cc2cccn2C)nnc1SCC(=O)Nc1cc(C)on1  3.6%
86. NC(=O)c1ccc2[nH]c3c(c2c1)CCCC3  4%
87. O=C(O)/C=C/C(=O)Nc1ccccc1C(=O)Nc1ccccc1  4.16%
88. CCC(=O)CC(c1ccc([N+](=O)[O-])cc1)c1c(O)sc2ccccc2c1=O (stereo not shown)  4.98%
89. CCCN1C(=O)C(O)(CC(=O)c2ccc3ccccc3c2)c2cc(Br)ccc21 (stereo not shown)  5.07%
90. COc1ccc(C2CC(C(F)(F)F)n3nc(C(=O)NCc4ccco4)c(Br)c3N2)cc1 (stereo not shown)  5.37%
91. Cc1ccc(CCNCc2c(C(=O)O)n(Cc3ccccc3C)c3cc(C)ccc23)cc1  5.61%
92. CC(=O)CCc1c(C)nc2ccc(C)cc2c1Cl  6.06%
93. CN1CN=C2SC3(COC(c4ccncc4)OC3)C(=O)N2C1 (stereo not shown)  6.22%
94. Brc1ccccc1-c1nc2c3c4c(sc3ncn2n1)CCCC4  6.42%
95. CC/C(=N\c1ccccc1)C1=C(O)CC(C)(C)CC1=O  6.65%
96. O=C(NC1(C(F)(F)F)NC(=O)N(CCc2ccccc2)C1=O)C1CCCCC1 (stereo not shown)  7.4%
97. CCCCNC(=O)Cn1nc(Cc2ccncc2)c2ccccc2c1=O  7.96%
98. Cc1cccc(/C=C2/SC(=O)N(CN(C)C)C2=O)c1  8.71%
99. Cc1nn(C(=O)/C=C/c2ccccc2)c(C)c1Sc1ccccc1  14.6%

In the case of `CN1CCN(CC(O)COc2ccccc2)CC1` (stereo not shown), the “% Inhibition @ 10 uM” value is reported as 0.00178% and -1.7%.
